The list shows a part of the results. Sequences were assembled here from the parent chain. Values near 0.05 are background.
B1: TEV protease; numbered along this chain (parent)
chain: MGESLFKGPRDYNPISSSICHLTNESDGHTTSLYGIGFGPFIITNKHLFRRNNGTLVVQSLHGVFKVKDTTTLQQHLVDGRDMIIIRMPKDFPPFPQKLKFREPQREERICLVTTNFQTKSMSSMVSDTSCTFPSGDGIFWKHWIQTKDGQCGSPLVSTRDGFIVGIHSASNFTNTNNYFTSVPKNFMELLTNQEAQQWVSGWRLNADSVLWGGHKVFMVKPEEPFQPVKEATQL

Variants of: B1
Assay: raw area under fraction-flipped curve 0-4 h after induction (AUC4h, not background-subtracted), DNA-recorder readout of cleavage of the substrate (dimensionless); higher = more cleavage of the substrate by the protease variant
Conditions: temperature: 34 °C; time window: 0-4 h after rhamnose induction
Procedure: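 In vivo DNA recorder in E. coli TOP10(DE3) ΔrhaA at 34 °C. Each TEVp single-site mutant (parent TEVp 0) is paired with a single-site variant of the 7-mer TEVs (canonical ENLYFQ|S). The substrate sits between flexible linkers in a Bxb1-sfGFP-TEVs-SsrA fusion, so cleavage stabilises Bxb1 and speeds flipping of a recombination array, read by NGS. The value is the raw area under the fraction-flipped curve over 0-4 h after rhamnose induction (AUC4h), with ≥20 reads per time point. It is not background-subtracted; inactive controls average about 0.047.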
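Also: Bxb1 expression induced with 0.2% (w/v) L-rhamnose at OD600 near 0.5, cultures sampled hourly, flipped fraction per protease–substrate barcode pair counted by paired-end Illumina sequencing.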

Row | Variant | area with substrate DNLYFQS | area with substrate HNLYFQS | area with substrate LNLYFQS | area with substrate MNLYFQS | area with substrate SNLYFQS | area with substrate TNLYFQS | area with substrate WNLYFQS | area with substrate KNLYFQS | area with substrate NNLYFQS | area with substrate GNLYFQS
1 | MGESLFKGPRDYNPISSSICHLTNESDGHTTSLYGIGFGPFIITNKHLFRRNNGTLVVQSLHGVFKVKDTTTLQQHLVDGRDMIIIRMPKDFPPFPQKLKFREPQREERICLVTTNFQTKSMSSMVSDTSCTFPSGDGIFWKHWIQTKDGQCGSPLVSTRDGFIVGIHSASNFTNTNNYFTSVPKNFVELLTNQEAQQWVSGWRLNADSVLWGGHKVFMVKPEEPFQPVKEATQL [M188V] | 0.0813 | 0.0526 | 0.0768 | 0.0936 | 0.067 | 0.0486 | 0.0496 | – | – | –
2 | MGESLFKGPRDYNPISSSICHLTNESDGHTTSLYGIGFGPFIITNKHLFRRNNGTLVVQSLHGVFKVKDTTTLQQHLVDGRDMIIIRMPKDFPPFPQKLKFREPQREERICLVTTNFQTKSMSSMVSDTSCTFPSGDGIFWKHWIQTKDGQCGSPLVSTRDGFIVGIHSASNFTNTNNYFTSVPKNFMEILTNQEAQQWVSGWRLNADSVLWGGHKVFMVKPEEPFQPVKEATQL [L190I] | 0.0773 | 0.0552 | – | – | – | 0.0683 | 0.0454 | 0.0778 | 0.0583 | –
3 | MGESLFKGPRDYNPISSSICHLTNESDGHTTSLYGIGFGPFIITNKHLFRRNNGTLVVQSLHGVFKVKDTTTLQQHLVDGRDMIIIRMPKDFPPFPQKLKFREPQREERICLVTTNFQTKSMSSMVSDTSCTFPSGDGIFWKHWIQTKDGQCGSPLVSTRDGFIVGIHSASNFTNTNNYFTSVPKNFMEKLTNQEAQQWVSGWRLNADSVLWGGHKVFMVKPEEPFQPVKEATQL [L190K] | 0.0771 | 0.0738 | 0.0698 | 0.0633 | – | 0.0562 | 0.0611 | 0.0752 | 0.0669 | 0.0596
4 | MGESLFKGPRDYNPISSSICHLTNESDGHTTSLYGIGFGPFIITNKHLFRRNNGTLVVQSLHGVFKVKDTTTLQQHLVDGRDMIIIRMPKDFPPFPQKLKFREPQREERICLVTTNFQTKSMSSMVSDTSCTFPSGDGIFWKHWIQTKDGQCGSPLVSTRDGFIVGIHSASNFTNTNNYFTSVPKNFMEVLTNQEAQQWVSGWRLNADSVLWGGHKVFMVKPEEPFQPVKEATQL [L190V] | 0.0797 | – | – | – | 0.0892 | 0.0628 | 0.0529 | 0.0662 | 0.0663 | –
5 | MGESLFKGPRDYNPISSSICHLTNESDGHTTSLYGIGFGPFIITNKHLFRRNNGTLVVQSLHGVFKVKDTTTLQQHLVDGRDMIIIRMPKDFPPFPQKLKFREPQREERICLVTTNFQTKSMSSMVSDTSCTFPSGDGIFWKHWIQTKDGQCGSPLVSTRDGFIVGIHSASNFTNTNNYFTSVPKNFMELNTNQEAQQWVSGWRLNADSVLWGGHKVFMVKPEEPFQPVKEATQL [L191N] | 0.0625 | 0.0514 | 0.0536 | – | 0.0614 | 0.0515 | 0.054 | 0.0446 | 0.0452 | –
6 | MGESLFKGPRDYNPISSSICHLTNESDGHTTSLYGIGFGPFIITNKHLFRRNNGTLVVQSLHGVFKVKDTTTLQQHLVDGRDMIIIRMPKDFPPFPQKLKFREPQREERICLVTTNFQTKSMSSMVSDTSCTFPSGDGIFWKHWIQTKDGQCGSPLVSTRDGFIVGIHSASNFTNTNNYFTSVPKNFMELLTFQEAQQWVSGWRLNADSVLWGGHKVFMVKPEEPFQPVKEATQL [N193F] | 0.0768 | 0.0585 | – | – | 0.0665 | – | – | – | 0.0641 | –
7 | MGESLFKGPRDYNPISSSICHLTNESDGHTTSLYGIGFGPFIITNKHLFRRNNGTLVVQSLHGVFKVKDTTTLQQHLVDGRDMIIIRMPKDFPPFPQKLKFREPQREERICLVTTNFQTKSMSSMVSDTSCTFPSGDGIFWKHWIQTKDGQCGSPLVSTRDGFIVGIHSASNFTNTNNYFTSVPKNFMELLTHQEAQQWVSGWRLNADSVLWGGHKVFMVKPEEPFQPVKEATQL [N193H] | 0.0364 | – | – | 0.076 | – | – | 0.0611 | 0.0584 | – | –
8 | MGESLFKGPRDYNPISSSICHLTNESDGHTTSLYGIGFGPFIITNKHLFRRNNGTLVVQSLHGVFKVKDTTTLQQHLVDGRDMIIIRMPKDFPPFPQKLKFREPQREERICLVTTNFQTKSMSSMVSDTSCTFPSGDGIFWKHWIQTKDGQCGSPLVSTRDGFIVGIHSASNFTNTNNYFTSVPKNFMELLTVQEAQQWVSGWRLNADSVLWGGHKVFMVKPEEPFQPVKEATQL [N193V] | 0.0735 | – | – | – | – | – | – | – | 0.0594 | –
9 | MGESLFKGPRDYNPISSSICHLTNESDGHTTSLYGIGFGPFIITNKHLFRRNNGTLVVQSLHGVFKVKDTTTLQQHLVDGRDMIIIRMPKDFPPFPQKLKFREPQREERICLVTTNFQTKSMSSMVSDTSCTFPSGDGIFWKHWIQTKDGQCGSPLVSTRDGFIVGIHSASNFTNTNNYFTSVPKNFMELLTNDEAQQWVSGWRLNADSVLWGGHKVFMVKPEEPFQPVKEATQL [Q194D] | 0.0632 | 0.0689 | – | – | 0.0571 | 0.0668 | 0.0647 | 0.0717 | 0.0563 | 0.0783
10 | MGESLFKGPRDYNPISSSICHLTNESDGHTTSLYGIGFGPFIITNKHLFRRNNGTLVVQSLHGVFKVKDTTTLQQHLVDGRDMIIIRMPKDFPPFPQKLKFREPQREERICLVTTNFQTKSMSSMVSDTSCTFPSGDGIFWKHWIQTKDGQCGSPLVSTRDGFIVGIHSASNFTNTNNYFTSVPKNFMELLTNQQAQQWVSGWRLNADSVLWGGHKVFMVKPEEPFQPVKEATQL [E195Q] | 0.0799 | 0.0615 | 0.0599 | – | – | – | 0.0706 | 0.0972 | – | –

Same assay, conditions: temperature: 34 °C; time window: 0-4 h after rhamnose induction

Row | Variant | area with substrate PNLYFQS | area with substrate VNLYFQS | area with substrate YNLYFQS | area with substrate FNLYFQS | area with substrate INLYFQS | area with substrate QNLYFQS | area with substrate RNLYFQS
11 | MGESLFKGPRDYNPISSSICHLTNESDGHTTSLYGIGFGPFIITNKHLFRRNNGTLVVQSLHGVFKVKDTTTLQQHLVDGRDMIIIRMPKDFPPFPQKLKFREPQREERICLVTTNFQTKSMSSMVSDTSCTFPSGDGIFWKHWIQTKDGQCGSPLVSTRDGFIVGIHSASNFTNTNNYFTSVPKNFMEKLTNQEAQQWVSGWRLNADSVLWGGHKVFMVKPEEPFQPVKEATQL [L190K] | 0.0603 | 0.0601 | 0.0565 | – | – | – | –
12 | MGESLFKGPRDYNPISSSICHLTNESDGHTTSLYGIGFGPFIITNKHLFRRNNGTLVVQSLHGVFKVKDTTTLQQHLVDGRDMIIIRMPKDFPPFPQKLKFREPQREERICLVTTNFQTKSMSSMVSDTSCTFPSGDGIFWKHWIQTKDGQCGSPLVSTRDGFIVGIHSASNFTNTNNYFTSVPKNFMEVLTNQEAQQWVSGWRLNADSVLWGGHKVFMVKPEEPFQPVKEATQL [L190V] | 0.0604 | 0.0819 | 0.0681 | 0.0699 | 0.0618 | 0.0724 | –
13 | MGESLFKGPRDYNPISSSICHLTNESDGHTTSLYGIGFGPFIITNKHLFRRNNGTLVVQSLHGVFKVKDTTTLQQHLVDGRDMIIIRMPKDFPPFPQKLKFREPQREERICLVTTNFQTKSMSSMVSDTSCTFPSGDGIFWKHWIQTKDGQCGSPLVSTRDGFIVGIHSASNFTNTNNYFTSVPKNFMELNTNQEAQQWVSGWRLNADSVLWGGHKVFMVKPEEPFQPVKEATQL [L191N] | 0.0539 | – | – | 0.0521 | – | 0.0483 | 0.0555
14 | MGESLFKGPRDYNPISSSICHLTNESDGHTTSLYGIGFGPFIITNKHLFRRNNGTLVVQSLHGVFKVKDTTTLQQHLVDGRDMIIIRMPKDFPPFPQKLKFREPQREERICLVTTNFQTKSMSSMVSDTSCTFPSGDGIFWKHWIQTKDGQCGSPLVSTRDGFIVGIHSASNFTNTNNYFTSVPKNFMELLTFQEAQQWVSGWRLNADSVLWGGHKVFMVKPEEPFQPVKEATQL [N193F] | 0.0603 | – | 0.0572 | – | 0.0594 | 0.0576 | –
15 | MGESLFKGPRDYNPISSSICHLTNESDGHTTSLYGIGFGPFIITNKHLFRRNNGTLVVQSLHGVFKVKDTTTLQQHLVDGRDMIIIRMPKDFPPFPQKLKFREPQREERICLVTTNFQTKSMSSMVSDTSCTFPSGDGIFWKHWIQTKDGQCGSPLVSTRDGFIVGIHSASNFTNTNNYFTSVPKNFMELLTHQEAQQWVSGWRLNADSVLWGGHKVFMVKPEEPFQPVKEATQL [N193H] | 0.102 | – | 0.0614 | – | – | – | –
16 | MGESLFKGPRDYNPISSSICHLTNESDGHTTSLYGIGFGPFIITNKHLFRRNNGTLVVQSLHGVFKVKDTTTLQQHLVDGRDMIIIRMPKDFPPFPQKLKFREPQREERICLVTTNFQTKSMSSMVSDTSCTFPSGDGIFWKHWIQTKDGQCGSPLVSTRDGFIVGIHSASNFTNTNNYFTSVPKNFMELLTVQEAQQWVSGWRLNADSVLWGGHKVFMVKPEEPFQPVKEATQL [N193V] | – | 0.057 | – | – | – | – | –
17 | MGESLFKGPRDYNPISSSICHLTNESDGHTTSLYGIGFGPFIITNKHLFRRNNGTLVVQSLHGVFKVKDTTTLQQHLVDGRDMIIIRMPKDFPPFPQKLKFREPQREERICLVTTNFQTKSMSSMVSDTSCTFPSGDGIFWKHWIQTKDGQCGSPLVSTRDGFIVGIHSASNFTNTNNYFTSVPKNFMELLTNDEAQQWVSGWRLNADSVLWGGHKVFMVKPEEPFQPVKEATQL [Q194D] | 0.0774 | 0.0715 | – | 0.0421 | 0.0711 | – | –
18 | MGESLFKGPRDYNPISSSICHLTNESDGHTTSLYGIGFGPFIITNKHLFRRNNGTLVVQSLHGVFKVKDTTTLQQHLVDGRDMIIIRMPKDFPPFPQKLKFREPQREERICLVTTNFQTKSMSSMVSDTSCTFPSGDGIFWKHWIQTKDGQCGSPLVSTRDGFIVGIHSASNFTNTNNYFTSVPKNFMELLTNQQAQQWVSGWRLNADSVLWGGHKVFMVKPEEPFQPVKEATQL [E195Q] | 0.0802 | – | 0.0578 | – | – | – | –

From the supplement of paper PMC12217912
